The whole screen tested about 43,000 compounds, of which about 200 (0.47%) were called active. Another 12% or so got no clear call; they are omitted. Calls follow the shape of the dose curve; as a rule, active = well fitted cell-killing curve with a large enough effect; inconclusive = small, poorly fitted or top-dose-only effect, or effect the other way; inactive = flat fitted curve, though single readings scatter. Some of the results follow.
% is scaled to controls: 0 for no effect and ±100 for the full control effect.

The assay is described as follows: Cell viability qHTS assay in S16 Pmp22-F2sN cells. Also: nearly all actives have a fitted effect of over 65% in size. The note with it: S16 Pmp22-F2sN Schwann cells (luciferase reporters placed in the Pmp22 gene) viability, CellTiter-Glo, 24 h; series mostly up to 57.5 µM; activity change, negative = cytotoxicity: at the top concentration. An excerpt: Assay Provider: Jim Inglese Ph.D. National Center for Advancing Translational Science, National Institutes of Health, Rockville, MD CMT is a heterogeneous group of neurological disorders that affect approximately 1 in 2,500 people. In particular, the most common form of CMT, CMT1A is genetically linked to the duplication of the PMP22 gene which leads to Schwann cell overexpression, thus manifesting itself as a typical case of dose-sensitive diseases. To identify small molecule compounds that can mediate the expression of PMP22 we developed a phenotypic assay screening strategy by utilizing genome editing techniques to construct Schwann cell lines containing novel reporter technology to monitor the transcriptional or translational regulation of PMP22. For high sensitivity we use a bioluminescent reporter system embedded in the 3' UTR of the PMP22 gene (S16(c9) Pmp22-F2sN) to identify compounds that inhibit gene expression. […] We can further discriminate the effect of all transcriptionally active molecules on PMP22 translation or stability with an assay that incorporates a short NLuc peptide (HiBiT) at the C-terminus of expressed PMP22 (S16(f8) PMP22-HiBiT) allowing alpha complementation and luminescence detection of membrane-associated PMP22 protein. These assays were screened against the NCATS Sytravon Library Collection. Miniaturization of these assays to 1536-well plate format for quantitative high throughput screening (qHTS) yielded rich data sets immediately from the qHTS assay (S16(c9) Pmp22-F2sN), when compared with data from a cell viability assay (Cell TiterGlo) to identify compounds that decreased the output signals through cellular toxicity to streamline the selection process of actives for subsequent characterization using the HiBiT assay (S16(f8) PMP22-HiBiT).
Cell viability assay in S16 Pmp22-F2sN cells PROTOCOL TABLE (format as described by Inglese J, Shamu CE and Guy RK. 2007) SEQUENCE No. (e.g., 1, 2, 3, etc.); […] (e.g., Cells, Incubation, Reagent, etc.); VALUE and DESCRIPTION. 1. Cells. Add 500-1,000 cells in 4 uL in growth media (DMEM High Glucose, No Phenol Red media + 10% heat-inactivated FBS + 1% Pen/Strep supplemented media) per well into Greiner 1536-well white/solid bottom high base, TC-treated plates. 2. Compounds. Library compounds and controls added at 23nL per well, transferred by Pin Tool. 3. Incubation. Incubate plates at 37C, 5% CO2, 95% RH for 24 h. 4. Reagent. Add 3uL CellTiter-Glo per well of Greiner 1536-well plates. 5. Incubation. Incubate plates at room temperature for 15 min., protect from light. 6. Detector. FLuc luminescence measured using CCD-based camera (Viewlux). NOTES (numbers refer to Sequence numbers above; values are from representative experiments) 6. Luminescence Read: Clear filter; Exposure = 1 sec, Gain = High, Speed = Slow, Binning = 2X REFERENCES: 1. Inglese J, Shamu CE and Guy RK, Reporting data from high throughput screening of small molecule libraries, Nature Chemical Biology, 2007, 3(8): 438-441. doi.org/10.1038/nchembio0807-438 2. Yasgar A, Shinn P, Jadhav A, Auld DS, Michael S, Zheng W, Austin CP, Inglese J and Simeonov A, Compound Management for Quantitative High-Throughput Screening. J. Assoc. Lab. Auto., 2008, 13: 79-89. doi: 10.1016/j.jala.2007.12.004
(In general: In qHTS, concentration-response curves come from the screen itself.)
In the case of `Cc1ccc(-n2cc(-c3ccccc3)nc2S(=O)(=O)CC(=O)Nc2ccc(F)cc2)cc1`, the “activity change, negative = cytotoxicity” value was inactive: -15.9%.

On to `COc1ccc(-n2nc(C(=O)Nc3ccc(C)cn3)c3c4ccccc4n(C)c3c2=O)cc1`, for which the “activity change, negative = cytotoxicity” value was inactive: 6.21%.

Take `Cc1ccc(N(CC(=O)NCc2ccc(F)cc2)S(=O)(=O)c2c(C)nn(C)c2C)cc1`: the “activity change, negative = cytotoxicity” value was inactive: 3.94%.

As for `COc1cccc(CNC(=O)c2ccc3c(c2)nnn3C2CCCC2)c1`, the “activity change, negative = cytotoxicity” value is inactive: 6.18%.

On to `Cc1ccc(C)c(N2CCN(C(=O)C3CCCN(S(=O)(=O)c4cccc5nsnc45)C3)CC2)c1` (stereo not drawn), for which the “activity change, negative = cytotoxicity” value is inactive: -11.1%.

As for `O=C(CNC(=O)c1ccccc1F)OCc1cc(=O)n2ccsc2n1`, the “activity change, negative = cytotoxicity” value is inactive: 4.04%.

With `CCN(CC)C(=O)Cn1c(=O)n(-c2ccc(OC)cc2OC)c(=O)c2c(C)c(C(=O)N(CC)CC)sc21`, the “activity change, negative = cytotoxicity” value was inactive: -1.48%.

With `COc1ccc(NC(=O)c2c(-c3ccc(C)cc3)nnc3ccccc23)cc1Cl`, the “activity change, negative = cytotoxicity” value was inactive: 0.41%.

Regarding `COc1ccccc1C(=O)Nc1nnc(SCc2cc(=O)c3cc(Cl)ccc3[nH]2)s1`, the “activity change, negative = cytotoxicity” value is inactive: -0.887%.

On to `COc1ccc(OC)c(NC(=O)Cn2ccc3ccccc3c2=O)c1`, for which the “activity change, negative = cytotoxicity” value is inactive: 15.1%.

For `CCC(=O)Nc1ccc2nc(SCCOc3ccccc3)sc2c1`, the “activity change, negative = cytotoxicity” value was inactive: 4.46%.

Turning to `CC(=O)Nc1nonc1-c1nnc(SCC(=O)Nc2ccccc2)n1-c1ccccc1`, the “activity change, negative = cytotoxicity” value is inactive: -6.44%.

For `CCOc1ccc(CNS(=O)(=O)c2ccc3[nH]c(=O)ccc3c2)cc1`, the “activity change, negative = cytotoxicity” value was inactive: 5.48%.

In the case of `Cn1c(=O)oc2cc(S(=O)(=O)NC(Cc3ccccc3)C(=O)NCc3ccc(F)cc3)ccc21` (stereo not drawn), the “activity change, negative = cytotoxicity” value is inactive: 4.9%.

For `Cc1ccc(C)c(N2CCN(Cc3nnc(-c4ccc5c(c4)OCO5)o3)CC2)c1`, the “activity change, negative = cytotoxicity” value was inactive: 0.269%.

`COc1ccccc1OC(C)C(=O)Nc1c(C(=O)c2ccc(Cl)cc2)oc2ccccc12` (stereo not drawn): the “activity change, negative = cytotoxicity” value is inactive: 20.4%.

`CCn1c(C)c(C)c2cc(C(=O)NCCCN3CCCCC3)ccc21`: the “activity change, negative = cytotoxicity” value was inactive: -1.99%.

Take `CCC(=O)N1c2ccccc2CC1C(=O)NCCN1CCN(c2cccc(C(F)(F)F)c2)CC1` (stereo not drawn): the “activity change, negative = cytotoxicity” value was inactive: -1.41%.

Take `Cc1ccc(NC(=O)CSc2ncn[nH]2)cc1C`: the “activity change, negative = cytotoxicity” value was inactive: 6.82%.

As for `CCOc1ccccc1NC(=O)CCc1c(C)nn(-c2ccc(N3CCOCC3)nn2)c1C`, the “activity change, negative = cytotoxicity” value is inactive: -18.2%.

`Cc1c(Cl)cccc1NC(=O)c1noc2c1CCCC2`: the “activity change, negative = cytotoxicity” value was inactive: -14.7%.

Take `CNS(=O)(=O)c1cn(CC(=O)Nc2cccc(OC)c2)cc1S(=O)(=O)NC`: the “activity change, negative = cytotoxicity” value is inactive: 2.77%.

As to `COC(=O)c1ccc(-n2c(CCC(=O)O)ccc2-c2ccc(C)cc2)cc1`, the “activity change, negative = cytotoxicity” value was inactive: 16.3%.

With `CCOC(=O)Cn1c(=O)n(CC2CCCO2)c2nc(-c3cccc(C)c3)nc(C(N)=O)c21` (stereo not drawn), the “activity change, negative = cytotoxicity” value is inactive: 23%.

Turning to `Cc1cc2c(cc1C)NC(CC(=O)Nc1ccccc1)C(=O)N2` (stereo not drawn), the “activity change, negative = cytotoxicity” value was inactive: -0.994%.

`Cc1ccc(O)c(NC(=O)c2ccc(Br)c(S(=O)(=O)N3CCCCC3)c2)c1`: the “activity change, negative = cytotoxicity” value is inactive: 13.9%.

For `CCN(Cc1ccccc1)C(=O)Cn1cc(S(=O)(=O)Cc2cccc(Cl)c2)c2ccccc21`, the “activity change, negative = cytotoxicity” value is inactive: -21.9%.

Regarding `Cc1ccccc1CSc1nc2cc(C(=O)NC3CCCC3)ccc2c(=O)n1Cc1ccccc1`, the “activity change, negative = cytotoxicity” value is inactive: -1.6%.

Regarding `CC1CCN(C(=O)CSc2c(C(C)C)cnc3c2c(=O)n(C)c(=O)n3C)CC1`, the “activity change, negative = cytotoxicity” value was inactive: -23.3%.

As to `COC(=O)CC1Oc2ccccc2-n2cc(-c3ccccc3)nc21` (stereo not drawn), the “activity change, negative = cytotoxicity” value is inactive: 25.3%.

With `O=C(CCCn1c(=O)c2cccn2c2ccc(F)cc21)NCc1ccc(Cl)cc1`, the “activity change, negative = cytotoxicity” value is inactive: -2.4%.

Take `COc1ccc(NC(=O)c2ccc3nc(CCc4ccccc4)oc3c2)c(OC)c1`: the “activity change, negative = cytotoxicity” value was inactive: -2.48%.

Consider `Cc1ccccc1NC(=O)N1CCc2c(sc3c2CCCC3)C1c1ccccc1` (stereo not drawn), for which the “activity change, negative = cytotoxicity” value was inactive: -23.1%.

Take `CCOc1ccc(C(=O)Nc2c(C(=O)c3ccc(OC)cc3)oc3ccccc23)cc1`: the “activity change, negative = cytotoxicity” value is inactive: 19.7%.

With `CCC(=O)Nc1ccc(CC)cc1-c1nc2ccccc2n(CC(=O)Nc2cccc(Cl)c2)c1=O`, the “activity change, negative = cytotoxicity” value was inactive: -1.24%.

As for `CCCCCn1cc2c(c1-c1ccc(Br)cc1)c(=O)n(C)c(=O)n2C`, the “activity change, negative = cytotoxicity” value is inactive: -10.4%.

With `CCc1ccccc1NC(=O)Cn1c(=O)n(-c2ccc(C)cc2)c(=O)c2c1c1cc(C)ccc1n2C`, the “activity change, negative = cytotoxicity” value was inactive: -1.76%.

For `COc1ccc(OC)c(NC(=O)c2cc3cc(C)ccc3n2C)c1`, the “activity change, negative = cytotoxicity” value is inactive: 0.0667%.

For the molecule `COc1cccc(NC(=O)Cn2nnc(-c3nc(-c4ccccc4)no3)c2N)c1`, the “activity change, negative = cytotoxicity” value was inactive: 1.11%.

With `Cc1nc2ncnn2c(C)c1CCC(=O)N1CCN(c2ccccc2)CC1`, the “activity change, negative = cytotoxicity” value is inactive: 0.118%.

Consider `O=C(Cn1c(=O)oc2cc(Cl)ccc21)Nc1cccc(C(F)(F)F)c1`, for which the “activity change, negative = cytotoxicity” value is inactive: -3.12%.

On to `CCS(=O)(=O)c1ncc(N(Cc2ccccc2)Cc2ccco2)c(C(=O)Nc2ccc(C)c(C)c2)n1`, for which the “activity change, negative = cytotoxicity” value is inactive: 0.0434%.

In the case of `CCn1c(NCc2ccc(OC)cc2)nc2ccccc21`, the “activity change, negative = cytotoxicity” value is inactive: 6.65%.

For the molecule `CCOc1ccc(NC(=O)c2ccc3c(=O)n4nc(Nc5ccccc5C)sc4nc3c2)cc1`, the “activity change, negative = cytotoxicity” value is inactive: 17.7%.

With `COc1cc(C(CC(=O)Nc2ccc(F)cc2F)N2Cc3ccccc3C2=O)cc(OC)c1OC` (stereo not drawn), the “activity change, negative = cytotoxicity” value was inactive: 11.6%.

For `COCCNC(=O)CCc1c(C)nc2c(-c3ccc(F)cc3)c(C)nn2c1C`, the “activity change, negative = cytotoxicity” value is inactive: -8.04%.

As to `COc1ccc(CCNC(=O)CCCCn2c(=O)c3ccccc3n(Cc3ccccc3C)c2=O)cc1OC`, the “activity change, negative = cytotoxicity” value is inactive: 4.96%.

Regarding `COc1ccc(N(CC(=O)NCc2ccccc2Cl)S(=O)(=O)c2c(C)nn(C)c2C)cc1`, the “activity change, negative = cytotoxicity” value was inactive: 4.74%.

The record behind these values is PubChem BioAssay AID1508642 (National Center for Advancing Translational Sciences (NCATS), 2021).
